Measured values as given in PubChem BioAssay AID1347055 (National Center for Advancing Translational Sciences (NCATS), 2019).
About 120 (0.22%) of roughly 54,000 compounds were called active. Inconclusive means that the source gave no clear call. Such entries were picked first, then a sample of the others. The call rests on the fitted dose curve; in most records, active means well fitted inhibition curve with a large enough effect; inconclusive means small, poorly fitted or top-dose-only effect, or effect the other way; inactive means flat fitted curve, though single readings scatter. No potency is given beside an inconclusive call; the fits are too rough.

Target: Fumarate hydratase, mitochondrial (Homo sapiens) (UniProt P07954)
UniProt P07954, sequence (P07954 whole entry, looked up): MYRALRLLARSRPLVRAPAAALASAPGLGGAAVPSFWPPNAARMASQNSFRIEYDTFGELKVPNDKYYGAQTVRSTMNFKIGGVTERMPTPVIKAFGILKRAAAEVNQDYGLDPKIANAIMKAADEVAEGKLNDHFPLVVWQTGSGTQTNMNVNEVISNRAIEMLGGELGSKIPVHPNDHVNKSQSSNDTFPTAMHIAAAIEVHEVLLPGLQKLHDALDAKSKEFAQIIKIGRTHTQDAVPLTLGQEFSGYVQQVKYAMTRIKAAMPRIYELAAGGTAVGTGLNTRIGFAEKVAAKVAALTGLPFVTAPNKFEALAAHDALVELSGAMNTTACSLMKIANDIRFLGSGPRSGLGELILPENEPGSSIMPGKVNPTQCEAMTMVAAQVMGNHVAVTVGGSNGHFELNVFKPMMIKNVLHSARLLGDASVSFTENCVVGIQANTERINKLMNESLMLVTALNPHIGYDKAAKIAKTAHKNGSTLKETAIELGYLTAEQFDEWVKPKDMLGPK
Assay: Identification of activators of human fumarate hydratase by quantitative high-throughput screening; further: the screen sought activators but most active calls are inhibition curves; nearly all actives have a fitted effect of over 45% in size
Conditions: FH coupled MDH/diaphorase resazurin fluorescence, 15 min; activity change, negative = inhibition: at 79.9 µM (top of the series)
On the % scale 0 is the no-effect control and ±100 the full control effect; potency means the concentration at half of the fitted maximal effect; tags describe the fitted curve by direction and shape.

Question: How did the Potency turn out when `CCc1cccc(NC(=O)Nc2cn(C)c(=O)c3ccccc23)c1` was run?
Answer: inconclusive [activator, single point]

Question: Which Potency does the source give for `COc1ccc(C)cc1NC(=O)C(=O)NCC(c1cccnc1)N1CCN(c2ccccc2F)CC1` (configuration not stated) here?
Answer: inconclusive [inhibitor, partial curve, poor fit]

Question: How did the Potency turn out when `C=C(C(=O)OC)[C@]12O[C@@](C)(CC[C@@]3(O)/C(=C\C)C(=O)O[C@]3(C)C[C@@H]1OC(=O)C(CO)CN1CCCC1C(=O)O)CC2=O` (some centres not stated) was run?
Answer: inactive

Question: For `CC(C)NC(=O)c1ccc2c(c1)N(Cc1cccc(Cl)c1)C(=O)c1ccccc1S2=O` (configuration not stated), which Potency is on record?
Answer: inconclusive [inhibitor, partial curve]

Question: How did the Potency turn out when `CCCN1C(=O)C(O)(CC(=O)c2ccc(C(C)C)cc2)c2ccccc21` (configuration not stated) was run?
Answer: inactive

Question: `C[C@H]1C(=O)N2c3ccccc3[C@@]3(O)C[C@@H]4C(=O)N[C@](C)(c5nc6ccccc6c(=O)n54)N1[C@@H]23` was tested. Which Potency did it give?
Answer: inactive

Question: With `CC(CCC1(O)OC2CC3C4CC=C5C[C@@H](O[C@@H]6O[C@H](CO)[C@@H](O[C@@H]7O[C@@H](C)[C@H](O)[C@@H](O)[C@H]7O)[C@H](O)[C@H]6O[C@@H]6O[C@@H](C)[C@H](O)[C@@H](O)[C@H]6O)CC[C@]5(C)C4CC[C@]3(C)[C@@]2(O)[C@@H]1C)CO[C@@H]1O[C@H](CO)[C@@H](O)[C@H](O)[C@H]1O` (some centres not stated) as the compound, how does the Potency read?
Answer: inactive

Question: How did the Potency turn out when `CCOC(=O)c1ccc(NC(=O)CSc2ccc(-c3ccccn3)nn2)cc1` was run?
Answer: inconclusive [inhibitor, partial curve]

Question: For `COC(=O)c1c(SC)nc2ccccc2c1OCc1ccccc1Cl`, which Potency is on record?
Answer: inactive

Question: Which Potency does the source give for `Cc1cc(C)n2nc(CNC(=O)c3ccccc3Cl)nc2n1` here?
Answer: inactive

Question: For `COc1ccc(CNC(=O)CS(=O)Cc2nc(-c3ccc(OC)c(OC)c3)oc2C)cc1` (configuration not stated), which Potency is on record?
Answer: inconclusive [inhibitor, partial curve, poor fit]

Question: With `Cc1ccc(C)c(OCCn2c(C3CC(=O)N(Cc4ccc(F)cc4)C3)nc3ccccc32)c1` (configuration not stated) as the compound, how does the Potency read?
Answer: inconclusive [inhibitor, single point]

Question: With `CCCC[C@@]1(C2CCCC2)Cc2cc(OCC(=O)O)c(Cl)c(Cl)c2C1=O` as the compound, how does the Potency read?
Answer: inconclusive [inhibitor, partial curve, poor fit]

Question: For `CCc1ccc(NC(=O)COC(=O)CCCC2=NS(=O)(=O)c3ccccc3N2)cc1`, which Potency is on record?
Answer: inactive

Question: How did the Potency turn out when `COc1ccc(-n2c(/C=C/c3cccc(C(F)(F)F)c3)nc3ccccc3c2=O)cc1Cl` was run?
Answer: inactive

Question: With `Cn1cc(S(=O)(=O)N2CCCCCC2)cc1C(=O)N1CCN(c2cccc(C(F)(F)F)c2)CC1` as the compound, how does the Potency read?
Answer: inconclusive [inhibitor, single point]

Question: How did the Potency turn out when `CN=c1nc(-c2ccccc2)n(-c2ccccc2)s1` was run?
Answer: inconclusive [inhibitor, partial curve, poor fit]

Question: Which Potency does the source give for `Cc1nn(CC(=O)NCc2ccc(N(C)C)cc2)c(=O)c2nn(-c3ccccc3)c(C)c12` here?
Answer: inactive

Question: With `Cc1ccc(Cn2c(CN3CCN(c4cccc(Cl)c4)CC3)nc3c2c(=O)n(C)c(=O)n3C)cc1` as the compound, how does the Potency read?
Answer: inconclusive [inhibitor, partial curve, poor fit]

Question: With `Cc1ccc(NC(=O)CSc2nccn2C2CCCC2)cc1Cl` as the compound, how does the Potency read?
Answer: inconclusive [inhibitor, single point]

Question: With `CCc1nnc2c(Nc3ccccc3Br)nc3ccccc3n12` as the compound, how does the Potency read?
Answer: inactive

Question: `CCCNC(=O)c1c(NC(=O)c2ccccc2)sc2c1CCC(C(C)(C)C)C2` (configuration not stated) was tested. Which Potency did it give?
Answer: inconclusive [inhibitor, single point]

Question: `Cc1cccc(N2C(=O)N(Cc3cccc(C#N)c3)c3ccccc3S2(=O)=O)c1` was tested. Which Potency did it give?
Answer: inactive

Question: For `Cc1ccccc1Nc1c(-c2ccccc2)nc2cccc(C)n12`, which Potency is on record?
Answer: inactive

Question: `CCCOc1ccc(C(=O)Nc2ccc(NC(=O)c3ccccc3)c(C)c2)cc1` was tested. Which Potency did it give?
Answer: inactive

Question: Which Potency does the source give for `COc1ccccc1NC(=O)c1sc2nc3c(cc2c1N)CN(Cc1ccccc1)CC3` here?
Answer: inconclusive [inhibitor, partial curve, poor fit]

Question: `CC(C)OC(=O)C(C(=O)OC(C)C)=C1SC=CS1` was tested. Which Potency did it give?
Answer: inactive

Question: Which Potency does the source give for `CCC(=O)N1CCc2cc(Br)cc(S(=O)(=O)CCC(=O)Nc3cccc(C)c3C)c21` here?
Answer: inconclusive [inhibitor, partial curve, poor fit]

Question: Which Potency does the source give for `CCCn1cnc2cc(NCc3ccc(OC)cc3OC)ccc21` here?
Answer: inconclusive [inhibitor, partial curve]

Question: For `CC(C)c1ccc(NC(=O)Cn2cc(S(=O)(=O)Cc3ccccc3Cl)c3ccccc32)cc1`, which Potency is on record?
Answer: inconclusive [inhibitor, partial curve, poor fit]

Question: Which activity change, negative = inhibition does the source give for `CC1CCN(C(=O)CSc2nc3ccccc3nc2Cc2ccccc2)CC1` here?
Answer: inconclusive: -55.9% [inhibitor]

Question: How did the Potency turn out when `CCCCC(Sc1nc2cc3c(cc2c(=O)n1CCCC(=O)NCc1ccc2c(c1)OCO2)OCO3)C(=O)OCC` (configuration not stated) was run?
Answer: inconclusive [inhibitor, partial curve]

Question: For `Cc1c(C)n(Cc2ccc(-c3ccccc3C(=O)O)cc2)c2ccc(C(=O)N[C@@H](C)c3ccc([N+](=O)[O-])cc3)cc12`, which Potency is on record?
Answer: inactive

Question: `COc1ccc(CNC(=O)Cc2c(C)c3cc4c(C)coc4c(C)c3oc2=O)cc1OC` was tested. Which Potency did it give?
Answer: inactive

Question: How did the Potency turn out when `CC(C)c1ccc2occ(CC(=O)N(Cc3ccc(F)cc3)C3CCS(=O)(=O)C3)c2c1` (configuration not stated) was run?
Answer: inconclusive [inhibitor, partial curve, poor fit]

Question: How did the Potency turn out when `COc1ccc(CCNC(=O)c2ccc3c(c2)ncn3-c2ccc(C(C)C)cc2)cc1OC` was run?
Answer: inconclusive [inhibitor, partial curve, poor fit]

Question: `O=C(Nc1ccccc1)N(Cc1cccc(Cl)c1)c1ccccn1` was tested. Which Potency did it give?
Answer: inconclusive [inhibitor, partial curve, poor fit]

Question: `COc1ccc2nc3ccc(OC)cc3c(SCCCN)c2c1` was tested. Which Potency did it give?
Answer: inactive

Question: `C=C(C)C1CC(O)C(C)C12CC(O)C1(C)OC1C2O` (configuration not stated) was tested. Which Potency did it give?
Answer: inconclusive [inhibitor, single point]

Question: `Cc1cn(C)c(CC(=O)N2CCN(c3cccc(C(F)(F)F)c3)CC2)c1C(=O)O` was tested. Which Potency did it give?
Answer: inactive

Question: Which Potency does the source give for `Cc1ccc(C(=O)NCC(=O)OCc2cc(=O)n3c(C)csc3n2)cc1` here?
Answer: inconclusive [activator, partial curve]

Question: With `Cc1cc(O)c2c(O)c3c(O)cccc3cc2c1` as the compound, how does the Potency read?
Answer: inactive

Question: Which Potency does the source give for `CCOc1ccccc1-c1noc(CCCC(=O)Nc2cccc(C(F)(F)F)c2)n1` here?
Answer: inconclusive [inhibitor, single point]

Question: Which Potency does the source give for `CCOc1ccc(NC(=O)CC2C(=O)N(c3ccc(C)cc3)C(=O)N2C2CCCCC2)cc1` (configuration not stated) here?
Answer: inconclusive [inhibitor, single point]

Question: Which Potency does the source give for `C[C@@H]1[C@H](O)[C@@H]2OC(=O)C3=C2[C@H](CCC3)[C@@]12C[C@@H](c1ccoc1)OC2=O` here?
Answer: inactive

Question: `COc1cc2nc(N3CCC(N4CCCCC4)CC3)nc(NC3CCCCCC3)c2cc1OC` was tested. Which Potency did it give?
Answer: inactive

Question: With `Cc1ccc2c(c1)c(=O)c(C(=O)c1ccccc1)cn2Cc1ccccc1F` as the compound, how does the Potency read?
Answer: inconclusive [inhibitor, single point]

Question: Which Potency does the source give for `CC(C)CC(=O)NCCn1cc(C(=O)O)c(=O)cc1C(O)c1ccccc1` (configuration not stated) here?
Answer: inactive

Question: For `COc1ccc(CCNC(=O)c2cc(=O)c3cc(C)cc(C)c3o2)cc1OC`, which Potency is on record?
Answer: inconclusive [inhibitor, full curve, poor fit]

Question: How did the Potency turn out when `Cc1cc(N(C)Cc2ccccc2)n2nc(-c3ccc(C(C)(C)C)cc3)nc2n1` was run?
Answer: inconclusive [inhibitor, single point]

Question: Which Potency does the source give for `Cc1ccc(-n2nc(C(C)(C)C)cc2NC(=O)Nc2ccc(OCCN3CCOCC3)c3ccccc23)cc1` here?
Answer: inconclusive [inhibitor, single point]

Question: Which Potency does the source give for `COc1ccc(Cl)cc1NC(=O)Cc1coc2c(C)c(C)ccc12` here?
Answer: inconclusive [inhibitor, single point]

Question: How did the Potency turn out when `COc1ccc(CCNc2nc(-c3ccc(Cl)cc3)cc(C(F)(F)F)n2)cc1OC` was run?
Answer: inconclusive [inhibitor, partial curve, poor fit]

Question: With `O=c1oc2c3c(ccc2c2ccccc12)OCN(Cc1cccc(Cl)c1)C3` as the compound, how does the Potency read?
Answer: inconclusive [inhibitor, partial curve, poor fit]

Question: For `Cc1cc(C)c(NC(=O)CSc2nccn2Cc2ccco2)c(C)c1`, which Potency is on record?
Answer: inactive

Question: With `CCOc1ccccc1N(C)C(=O)C1CCCN(c2ncnc3onc(-c4ccc(F)cc4)c23)C1` (configuration not stated) as the compound, how does the Potency read?
Answer: inconclusive [inhibitor, single point]

Question: For `CCn1cc(C(=O)NCCc2ccccc2)c(=O)c2cc(S(=O)(=O)N(C)C3CCCCC3)ccc21`, which Potency is on record?
Answer: inconclusive [inhibitor, partial curve, poor fit]

Question: How did the Potency turn out when `CC(=O)c1[nH]c(C)c(C(=O)NCCc2ccc(C)cc2)c1C` was run?
Answer: inconclusive [inhibitor, single point]

Question: Which Potency does the source give for `COC1=C2C[C@@H](C)C[C@H](OC)[C@@H](O)[C@@H](C)C=C(C)[C@H](OC(N)=O)[C@@H](OC)C=CC=C(C)C(=O)NC(=CC1=O)C2=O` here?
Answer: inconclusive [inhibitor, single point]

Question: Which Potency does the source give for `Cc1ccc(S(=O)(=O)Nc2cc3c(cc2N2CCOCC2)n(C)c(=O)n3C)c(C)c1` here?
Answer: inconclusive [inhibitor, single point]

Question: `CCC(C(=O)Nc1cccc(C#N)c1)n1c(=O)c(-c2ccccc2NC(C)=O)nc2ccccc21` (configuration not stated) was tested. Which Potency did it give?
Answer: inconclusive [inhibitor, partial curve, poor fit]

Question: How did the Potency turn out when `Cc1ccc2oc(=O)c3cc(C(=O)N(Cc4ccccc4)C(C)C)sc3c2c1` was run?
Answer: inconclusive [inhibitor, partial curve, poor fit]
